We go through 34 molecules from the supplement of paper PMC6609913.

The structures appear in SMILES notation. Structures can show the parent of a compound that is named as a salt. ± gives the standard deviation of the averaged measurements. Over roughly 1,300 compounds, “normalised cell viability” has its median near 1; the lowest 2% begin near 0.15. Some of the results follow.

In the assay the test system is V-C8 + BRCA2 (BRCA2-proficient hamster cells). The assay can be described thus: normalised cell viability (fraction of plate median); higher = more viable cells (less toxic). The settings on record: 5 µM. In a few lines: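 Hamster V-C8 cells lacking BRCA2 and V-C8 cells with BRCA2 restored were seeded in 96-well plates. Library drugs (10 mM DMSO stocks) were added 24 h later at 5 μM in 100 μl medium, next to DMSO control wells, for 3 days (screen 1) or 6 days (screen 2). Cell viability was read by resazurin assay, median-plate normalised (modified robust per cent of sample), and triplicate wells were averaged.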

Take `CC[C@H](C)C(=O)O[C@H]1C[C@@H](C)C=C2C=C[C@H](C)[C@H](CC[C@@H]3C[C@@H](O)CC(=O)O3)[C@H]21` [Lovastatin]: the normalised cell viability reads like this: (treatment time: 3 days) 0.19 ± 0.015; (treatment time: 6 days) 0.153 ± 0.019.
In the same order, the values of `Cc1c(C)c2c(c(C)c1O)CCC(C)(C(=O)O)O2` (stereo not drawn) [Trolox] are 1.02 ± 0.027 and 1.07 ± 0.013.
In the same order, the values of `Cc1ncc(CO)c(CO)c1O` [Pyridoxine hydrochloride] are 1.01 ± 0.019 and 1.06 ± 0.046.
In the same order, the values of `CCc1c(C)[nH]c2c1C(=O)C(CN1CCOCC1)CC2` (stereo not drawn) [Molindone hydrochloride] are 1.02 ± 0.021 and 1.1 ± 0.06.
On to `CCC1(c2ccccc2)NC(=O)N(C)C1=O` (stereo not drawn) [Mephenytoin], for which the normalised cell viability was 1.22 ± 0.4 (treatment time: 3 days) and 1.03 ± 0.027 (treatment time: 6 days).
As for `CC1=C(/C=C/C(C)=C/C=C/C(C)=C/C(=O)O)C(C)(C)CCC1` [Retinoic acid], the normalised cell viability is 1.01 ± 0.04 (treatment time: 3 days) and 0.978 ± 0.036 (treatment time: 6 days).
The matching figures for `NC(=O)c1cc[n+](CC2=C(C(=O)[O-])N3C(=O)[C@@H](NC(=O)[C@@H](c4ccccc4)S(=O)(=O)O)[C@H]3SC2)cc1` [Cefsulodin sodium salt]: 0.981 ± 0.043 and 1.06 ± 0.048.
The matching figures for `CC(=O)Oc1ccccc1C(=O)O` [Acetylsalicylic acid]: 1.01 ± 0.044 and 1.05 ± 0.044.
Regarding `N=C(N)NS(=O)(=O)c1ccc(N)cc1` [Sulfaguanidine], the normalised cell viability (treatment time: 3 days) amounted to 0.895 ± 0.066 and the normalised cell viability (treatment time: 6 days) was found to be 0.989 ± 0.022.
The matching figures for `COc1cc2nc(N(C)CCCNC(=O)C3CCCO3)nc(N)c2cc1OC` (stereo not drawn) [Alfuzosin hydrochloride]: 0.987 ± 0.013 and 1.11 ± 0.076.
For `Clc1ccc(Cn2c(CN3CCCC3)nc3ccccc32)cc1` [Clemizole hydrochloride], the normalised cell viability reads like this: (treatment time: 3 days) 1.29 ± 0.03; (treatment time: 6 days) 1.2 ± 0.027.
For `O=C(O)COCCN1CCN(C(c2ccccc2)c2ccc(Cl)cc2)CC1` (stereo not drawn) [Cetirizine dihydrochloride], the normalised cell viability is, setting by setting: (treatment time: 3 days) 1 ± 0.028; (treatment time: 6 days) 1.01 ± 0.063.
The matching figures for `N[C@@H]1CONC1=O` [D-cycloserine]: 1.02 ± 0.03 and 1.03 ± 0.054.
As to `C#C[C@]1(OC(C)=O)CC[C@H]2[C@@H]3CCC4=CC(=NO)CC[C@@H]4[C@H]3CC[C@@]21CC` (mixture of isomers) [Norgestimate], the normalised cell viability by setting is: (treatment time: 3 days) 1.09 ± 0.24; (treatment time: 6 days) 0.949 ± 0.013.
In the same order, the values of `CC(=O)O[C@]1(C(C)=O)CC[C@H]2[C@@H]3C=C(Cl)C4=CC(=O)[C@@H]5C[C@@H]5[C@]4(C)[C@H]3CC[C@@]21C` [Cyproterone acetate] are 0.949 ± 0.087 and 1.02 ± 0.086.
In the same order, the values of `Clc1ccc(CO/N=C(\Cn2ccnc2)c2ccc(Cl)cc2Cl)c(Cl)c1` [Oxiconazole Nitrate] are 1.07 ± 0.16 and 0.675 ± 0.12.
The matching figures for `Clc1ccc(CSC(Cn2ccnc2)c2ccc(Cl)cc2Cl)cc1` (stereo not drawn) [Sulconazole nitrate]: 1.11 ± 0.06 and 0.942 ± 0.033.
Consider `CN1C(=O)CC(c2ccccc2)C1=O` (stereo not drawn) [Phensuximide], for which the normalised cell viability runs as follows: (treatment time: 3 days) 1.06 ± 0.018; (treatment time: 6 days) 1.08 ± 0.084.
The matching figures for `Nc1ccn([C@@H]2O[C@H](CO)[C@@H](O)C2(F)F)c(=O)n1` [Gemcitabine]: 0.212 ± 0.014 and 0.183 ± 0.0099.
In the same order, the values of `CC1CNc2c(cccc2S(=O)(=O)N[C@@H](CCCNC(=N)N)C(=O)N2CC[C@@H](C)C[C@@H]2C(=O)O)C1` (stereo partly drawn) [Argatroban] are 1.203 ± 0.0019 and 1.12 ± 0.14.
In the same order, the values of `CN(C)CCN(Cc1ccccc1)c1ccccn1` [Tripelennamine hydrochloride] are 1.01 ± 0.022 and 1.03 ± 0.09.
As to `CC(=O)O[C@@]12CO[C@@H]1C[C@H](O)[C@@]1(C)C(=O)[C@H](O)C3=C(C)[C@@H](OC(=O)[C@H](O)[C@@H](NC(=O)OC(C)(C)C)c4ccccc4)C[C@@](O)([C@@H](OC(=O)c4ccccc4)[C@H]21)C3(C)C` [Docetaxel], the normalised cell viability runs as follows: (treatment time: 3 days) 0.258 ± 0.014; (treatment time: 6 days) 0.237 ± 0.023.
In the same order, the values of `N=C(N)NC(=O)Cc1c(Cl)cccc1Cl` [Guanfacine hydrochloride] are 1.08 ± 0.043 and 1.049 ± 0.0056.
The matching figures for `NC(Cc1cc(I)c(Oc2cc(I)c(O)c(I)c2)c(I)c1)C(=O)O` (stereo not drawn) [Thyroxine (L)]: 0.821 ± 0.05 and 0.888 ± 0.1.
On to `CN(C)CC/C=C1/c2ccccc2Sc2ccc(Cl)cc21` [Chlorprothixene hydrochloride], for which the normalised cell viability (treatment time: 3 days) stood at 1.01 ± 0.056 and the normalised cell viability (treatment time: 6 days) was 0.908 ± 0.021.
The matching figures for `COc1ccc2[nH]c([S+]([O-])Cc3ncc(C)c(OC)c3C)nc2n1` (stereo not drawn) [Tenatoprazole]: 0.985 ± 0.047 and 1.028 ± 0.0098.
In the same order, the values of `CN(C)CCOC(c1ccccc1)c1ccccc1` [Diphenhydramine hydrochloride] are 1.09 ± 0.049 and 1.04 ± 0.055.
On to `C[C@]12CC[C@@H]3c4ccc(O)cc4CC[C@H]3[C@@H]1CC[C@@H]2O` [Estradiol-17 beta], for which the normalised cell viability was 0.99 ± 0.026 (treatment time: 3 days) and 1.1 ± 0.016 (treatment time: 6 days).
The matching figures for `CCCN(CCC)S(=O)(=O)c1ccc(C(=O)O)cc1` [Probenecid]: 1 ± 0.026 and 1.16 ± 0.043.
The matching figures for `Cc1onc(-c2ccccc2)c1-c1ccc(S(N)(=O)=O)cc1` [Valdecoxib]: 1.06 ± 0.018 and 1.02 ± 0.056.
With `CCCc1cc(=O)[nH]c(=S)[nH]1` [Propylthiouracil], the normalised cell viability turned out to be 1.025 ± 0.0057 (treatment time: 3 days) and 1.01 ± 0.095 (treatment time: 6 days).
As for `C[N+]1(CCCCC[N+]2(C)CCCC2)CCCC1` [Pentolinium bitartrate], the normalised cell viability was determined as 1 ± 0.037 (treatment time: 3 days) and 1.06 ± 0.04 (treatment time: 6 days).
In the case of `Oc1ncnc2[nH]ncc12` [Allopurinol], the normalised cell viability runs as follows: (treatment time: 3 days) 1.08 ± 0.05; (treatment time: 6 days) 1.07 ± 0.04.
In the same order, the values of `CCCCCCC[N+](CC)(CC)CCCCc1ccc(Cl)cc1` [Clofilium tosylate] are 0.897 ± 0.063 and 0.935 ± 0.094.
